The values that follow come from the BET-seq Pho4 binding data (Le et al. 2018).

The list shows a part of the results. Values were computed here from the reads of four pooled replicates and scatter widely.

In the test the target is T1, Pho4 (S. cerevisiae) (UniProt P07270).
T1 sequence: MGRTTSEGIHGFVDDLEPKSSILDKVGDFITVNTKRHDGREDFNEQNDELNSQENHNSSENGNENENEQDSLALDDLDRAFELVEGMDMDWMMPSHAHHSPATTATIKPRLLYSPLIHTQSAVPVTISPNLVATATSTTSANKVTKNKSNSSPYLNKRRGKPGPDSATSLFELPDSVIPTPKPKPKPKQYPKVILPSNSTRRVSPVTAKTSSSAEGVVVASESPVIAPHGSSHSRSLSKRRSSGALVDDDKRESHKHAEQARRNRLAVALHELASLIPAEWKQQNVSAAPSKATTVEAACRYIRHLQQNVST
Briefly: relative binding free energy (BET-seq); higher = weaker binding. The settings on record: reference: library average.
On to TTTTGCACGTGTCAGT, for which the “relative binding free energy” value worked out at 0.04 kcal/mol.

As to AGGGTCACGTGACAGT, the “relative binding free energy” value came to 0.14 kcal/mol.

As for AGATACACGTGGTCGT, the “relative binding free energy” value was -0.11 kcal/mol.

Take TTATACACGTGTGGCA: the “relative binding free energy” value stood at 0.2 kcal/mol.

With GGAGACACGTGGTGCG, the “relative binding free energy” value is -0.03 kcal/mol.

As for GTCGGCACGTGTGAAA, the “relative binding free energy” value worked out at 0.18 kcal/mol.

As to TTTTACACGTGGGATT, the “relative binding free energy” value came to 0.02 kcal/mol.

Regarding CGGGTCACGTGCTTTG, the “relative binding free energy” value worked out at 0.14 kcal/mol.

With GGCTGCACGTGGGCTA, the “relative binding free energy” value is -0.09 kcal/mol.

As to TAGTACACGTGGGGAG, the “relative binding free energy” value was -0.02 kcal/mol.

With AGATACACGTGAGTGG, the “relative binding free energy” value was 0.14 kcal/mol.

Take GGTTGCACGTGAGAGA: the “relative binding free energy” value was determined as 0.16 kcal/mol.

Consider GGGGTCACGTGGAAGG, for which the “relative binding free energy” value was determined as 0.25 kcal/mol.

For GTACTCACGTGGTGTA, the “relative binding free energy” value was 0.19 kcal/mol.

GTTCACACGTGAGGGG: the “relative binding free energy” value is 0.27 kcal/mol.

As to GAGGGCACGTGGATAC, the “relative binding free energy” value amounted to 0.02 kcal/mol.

Turning to AGGACCACGTGGCGGG, the “relative binding free energy” value is -0.1 kcal/mol.

With CAGTTCACGTGGGGTC, the “relative binding free energy” value was determined as 0.1 kcal/mol.

GTATTCACGTGATAAG: the “relative binding free energy” value was determined as 0.35 kcal/mol.

For the sequence AGTTGCACGTGAGGTG, the “relative binding free energy” value turned out to be 0.21 kcal/mol.

In the case of GCATGCACGTGTGGAG, the “relative binding free energy” value was -0.07 kcal/mol.

Turning to AATTTCACGTGTGGGA, the “relative binding free energy” value came to 0.15 kcal/mol.

For AGGGCCACGTGCGTGG, the “relative binding free energy” value is -0.19 kcal/mol.

GGTTACACGTGCGTGG: the “relative binding free energy” value was -0.02 kcal/mol.

GGTAGCACGTGGGGTA: the “relative binding free energy” value is -0.14 kcal/mol.

Regarding GAGTACACGTGTTTAA, the “relative binding free energy” value was determined as 0.12 kcal/mol.

AGTGGCACGTGTCTGG: the “relative binding free energy” value is -0.15 kcal/mol.

For AGCGTCACGTGGTGTA, the “relative binding free energy” value was found to be 0.06 kcal/mol.

For TAGGGCACGTGATGTG, the “relative binding free energy” value was 0.11 kcal/mol.

In the case of TGTATCACGTGTTGAG, the “relative binding free energy” value was 0.07 kcal/mol.

In the case of GGCGTCACGTGAGATG, the “relative binding free energy” value amounted to 0.26 kcal/mol.

With GGAGTCACGTGCATTG, the “relative binding free energy” value turned out to be 0.23 kcal/mol.

Turning to GAACGCACGTGTGGGG, the “relative binding free energy” value was 0 kcal/mol.

On to TTGGACACGTGTGTAC, for which the “relative binding free energy” value came out at 0.12 kcal/mol.

On to ATGGACACGTGTGAGG, for which the “relative binding free energy” value was 0.12 kcal/mol.

Take GGTGACACGTGCTGGT: the “relative binding free energy” value is 0.05 kcal/mol.

Regarding AGTATCACGTGTGATG, the “relative binding free energy” value was 0.21 kcal/mol.

Take TATGGCACGTGGATTT: the “relative binding free energy” value came out at 0 kcal/mol.

For AAGGACACGTGTAGTA, the “relative binding free energy” value is 0.08 kcal/mol.

On to GGAAGCACGTGTAGAT, for which the “relative binding free energy” value was 0.07 kcal/mol.

Regarding TTGGCCACGTGTCTTT, the “relative binding free energy” value came to 0.1 kcal/mol.

Regarding GATGGCACGTGTGAGG, the “relative binding free energy” value came out at 0.08 kcal/mol.

As to TGTTCCACGTGATGGA, the “relative binding free energy” value was 0.14 kcal/mol.

As to CTTGTCACGTGGGAGA, the “relative binding free energy” value stood at 0.06 kcal/mol.

Regarding TATAGCACGTGTCTGA, the “relative binding free energy” value is -0.06 kcal/mol.

AGGTTCACGTGATGGG: the “relative binding free energy” value came to 0.39 kcal/mol.

TATTCCACGTGTTGTT: the “relative binding free energy” value came to 0.09 kcal/mol.

As to TTATGCACGTGATAGA, the “relative binding free energy” value was 0.05 kcal/mol.

Regarding TGTGACACGTGGTGTC, the “relative binding free energy” value is -0.17 kcal/mol.

As for GTGTACACGTGGAGTC, the “relative binding free energy” value is -0.02 kcal/mol.

CGGCGCACGTGGGGCG: the “relative binding free energy” value is -0.29 kcal/mol.

CTACGCACGTGGGGGG: the “relative binding free energy” value is -0.2 kcal/mol.

For GCTATCACGTGATGGG, the “relative binding free energy” value was 0.34 kcal/mol.

Take TGGGTCACGTGTTTGC: the “relative binding free energy” value was found to be 0.14 kcal/mol.

For ATTTTCACGTGCCTGT, the “relative binding free energy” value came out at 0.25 kcal/mol.

On to ATTACCACGTGAGGTG, for which the “relative binding free energy” value was 0.18 kcal/mol.

With AGACTCACGTGTTGTG, the “relative binding free energy” value came out at 0.13 kcal/mol.
